Screen size: about 390,000 compounds; about 2,200 (0.56%) were called active. The shares of active, inactive and inconclusive entries below differ from those in the screen. Calls follow the shape of the dose curve; as a rule, active = well fitted inhibition curve with a large enough effect; inconclusive = small, poorly fitted or top-dose-only effect; inactive = no such curve, though single readings can be large or run the other way. Potencies of inconclusive entries are doubtful fits and often do not repeat.
Molecular target: Chromobox protein homolog 1 (Homo sapiens) (UniProt P83916)
UniProt P83916, sequence (P83916 whole entry, looked up): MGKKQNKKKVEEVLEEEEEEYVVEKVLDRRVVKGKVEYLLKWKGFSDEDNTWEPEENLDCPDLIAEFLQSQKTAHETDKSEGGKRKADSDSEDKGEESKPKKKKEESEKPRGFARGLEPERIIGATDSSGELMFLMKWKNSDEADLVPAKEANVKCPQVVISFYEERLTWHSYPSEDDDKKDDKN
Test: HTS for Inhibitors of HP1-beta Chromodomain Interactions with Methylated Histone Tails; also: nearly all actives have a fitted effect of over 70% in size
Settings: AlphaScreen HP1-beta / biotin-H3K9me3 peptide binding; series mostly up to 114 µM; activity change, negative = inhibition: at the top concentration
In short: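 AlphaScreen: HP1-beta (50 nM) preformed 30 min with biotin-H3(1-18)K9me3 peptide (50 nM) in PBS pH 7.4, 0.01% Tween-20. Compound added for 30 min at RT, then streptavidin donor/nickel chelate acceptor beads (10 ug/mL) for 30 min.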
Potency is read from the fitted curve at half-maximal effect; tags tell the direction and shape of the fitted curve.

Structure (SMILES)	Potency	activity change, negative = inhibition
CC1CC(C)CN(C(=O)C(C)N(C)CC(=O)Nc2ccc(Cl)cc2)C1 (stereo unspecified)	inconclusive: 28.2 µM [inhibitor, single point]	
COc1ccccc1N1CCN(C(=O)COc2cc(C)ccc2C)CC1	inconclusive: 39.8 µM [inhibitor, single point]	
O=C(Nc1sc2c(c1C(=O)c1ccccc1)CCCC2)c1cccnc1	inconclusive: 50.1 µM [inhibitor, single point]	
O=C(c1cccs1)N1CCN(C/C=C/c2ccccc2)CC1		inactive: 21.7%
O=C(C[n+]1cc(-c2ccccc2)n2c1CCCCC2)c1ccc(Br)cc1		inactive: 15.7%
CCN(CC)CCn1cnc2c([nH]c3cccc(OC)c32)c1=O		inactive: 48.5%
COc1cc(CN(CCN(C)C)Cc2ccccc2)ccc1OCc1ccccc1	inconclusive: 56.2 µM [inhibitor, partial curve, poor fit]	
c1ccc(-c2noc(CN3CCN(c4cnccn4)CC3)n2)cc1	inconclusive: 11.2 µM [inhibitor, partial curve, poor fit]	
CN(C)c1ccc(CNc2nc(-c3ccco3)nn2C(=O)c2cccc([N+](=O)[O-])c2)cc1	inconclusive: 7.94 µM [inhibitor, full curve]	
CC1CN(CCCSc2ccc(Cl)cc2)CC(C)O1 (stereo unspecified)	inconclusive: 14.1 µM [inhibitor, full curve]	
CN(C)c1ccc(CN(CC2CCCO2)C(=O)COc2ccc(Cl)cc2)cc1 (stereo unspecified)	inconclusive: 22.4 µM [inhibitor, full curve]	
Clc1ccc(C2=NNC(=NCC3CCCO3)SC2)cc1 (stereo unspecified)		inactive: 2.2%
Cc1ccc(C(=O)CCC(=O)N2CCN(C(=O)c3ccco3)CC2)cc1		inactive: 33.2%
O=C(C1CCN(CCCc2ccccc2)CC1)N1CCCCC1	inconclusive: 50.1 µM [inhibitor, partial curve, poor fit]	
O=C(CSc1ccc(Cl)cc1)c1ccco1	inconclusive: 44.7 µM [inhibitor, partial curve, poor fit]	
CCOc1cc(/C=N/Nc2ncnc(Cl)c2N)ccc1O		inactive: -10%
Cc1ccc(CC(=O)NNC(=O)c2ccncc2)cc1C	inconclusive: 22.4 µM [inhibitor, partial curve]	
CCOC(=O)c1cc(-c2ccc(F)cc2)n(CCC(=O)Nc2ccccc2OC)c1C		inactive: -13.3%
Cc1cccc(C2NC(=O)c3c(sc4c3CCN(C)C4)N2)c1O (stereo unspecified)		inactive: 6.03%
COc1ccc(Br)c2c1-c1nc(NC(=O)c3ccccc3SC)sc1C2		inactive: 17.8%
c1ccc(Nc2scc(-c3ccccc3)[n+]2Cc2ccco2)cc1	inconclusive: 20 µM [inhibitor, full curve]	

— PubChem BioAssay AID540317 (National Center for Advancing Translational Sciences (NCATS), 2011)
